The other results are listed elsewhere or left out.

In paper PMC7819943, “Rice protein-binding microarrays: a tool to detect cis-acting elements near promoter regions in rice” one finds binding signal data, which are given here for 54 sequences.

The target in the assay is T1, OsWOX13 (Oryza sativa, UniProt Q5QMM3 1-267).
T1 sequence: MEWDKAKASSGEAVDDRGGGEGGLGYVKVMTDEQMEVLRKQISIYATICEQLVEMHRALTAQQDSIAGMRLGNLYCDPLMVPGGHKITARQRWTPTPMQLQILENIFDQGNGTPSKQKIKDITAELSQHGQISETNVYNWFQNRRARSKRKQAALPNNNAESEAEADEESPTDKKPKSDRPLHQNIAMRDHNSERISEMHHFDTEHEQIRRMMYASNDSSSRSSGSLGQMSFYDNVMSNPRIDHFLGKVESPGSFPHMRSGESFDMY
In words: protein-binding microarray (RPBM); PBS, 2% BSA, 51.3 ng/ul salmon testes DNA, 50 uM zinc acetate, 200 nM TF, 25 C, 1 h; high values mean tight binding. As to conditions: protein: recombinant; tags: N-terminal polyhistidine and DsRed monomer fusion (pET32a); label: CyDye5-dUTP incorporated in the synthesized complementary strand; 3' TTTTT single-stranded linker to array surface; dsDNA, one strand shown. The method in brief: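 Binding signal here means per-feature fluorescence intensity in arbitrary units. The values were read on an Axon 4000B scanner after a custom Agilent array, double-stranded by primer extension with Cy5-dUTP, was incubated with 200 nM protein at 25 °C for 1 h in PBS with 2% BSA, salmon testes DNA and 50 µM zinc acetate, then washed. The proteins were transcription factors with an N-terminal polyhistidine tag and DsRed, expressed in E. coli BL21-CodonPlus and purified on Ni–NTA.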
On to “GATTCTATTTATCAAATCATAATTAATAAATCCATTTGTTCGGAGTCACCTAGTGCAG”, for which the binding signal is 3770 fluorescence intensity (a.u.).

As to “TTGTTGTAATTATGTCATCGGTTTGTATTTAGTACCATATCGGAGTCACCTAGTGCAG”, the binding signal was 13500 fluorescence intensity (a.u.).

In the case of “GGGTGTAATTATAAAAGTGGAAACGAAACGAGACGAAATACGGAGTCACCTAGTGCAG”, the binding signal is 5560 fluorescence intensity (a.u.).

Regarding “TAATAAATTTGTTTCATCACTTGTGGAGATGTTTCAACCTCGGAGTCACCTAGTGCAG”, the binding signal was 13100 fluorescence intensity (a.u.).

Turning to “TGTTAATAATTATTATGGTAAAATTGTCTAAAATTCTGTTCGGAGTCACCTAGTGCAG”, the binding signal was 23500 fluorescence intensity (a.u.).

Consider “TAGTGATTACATCACTACTGATAGCCTGATATATGGCAAGCGGAGTCACCTAGTGCAG”, for which the binding signal was 21500 fluorescence intensity (a.u.).

As for “CGCAATTAGGAATTAATTTAGGCGGCCGAATTAAAGAAATCGGAGTCACCTAGTGCAG”, the binding signal was 34800 fluorescence intensity (a.u.).

“CCAAATTTCTCTATTTATACTCTGACACAGCCATACAGGTCGGAGTCACCTAGTGCAG”: the binding signal is 16900 fluorescence intensity (a.u.).

Consider “ACTTAGCACTTGATTACATATATTTTGGTCGTGTAGTTGTCGGAGTCACCTAGTGCAG”, for which the binding signal was 5480 fluorescence intensity (a.u.).

Consider “CTCGGGATTGCTAATTAGCGCACGTGTGTTTCCAACAAATCGGAGTCACCTAGTGCAG”, for which the binding signal is 35100 fluorescence intensity (a.u.).

In the case of “CATGACTGAAGAGCAGAAGGTGTCTAGCTAGTTGCCTAGTCGGAGTCACCTAGTGCAG”, the binding signal is 6700 fluorescence intensity (a.u.).

Turning to “TAACATGATCTAAATTATGTATTGTCCTTCGCGAACAGTGCGGAGTCACCTAGTGCAG”, the binding signal is 11700 fluorescence intensity (a.u.).

On to “ACTTAATCAAATTTAAAGCACTTTCGTCTTATACCCTAACCGGAGTCACCTAGTGCAG”, for which the binding signal is 12400 fluorescence intensity (a.u.).

As for “TGATCAATTATCGGTGCATGTCTGTCCATTTCGATTATCACGGAGTCACCTAGTGCAG”, the binding signal was 14500 fluorescence intensity (a.u.).

Take “AGCAAATTAATTAACACAAATCGATCATGATTCGGATCTGCGGAGTCACCTAGTGCAG”: the binding signal was 27800 fluorescence intensity (a.u.).

On to “TTCGTCTCCCAATTTACACGCAATTTATGTAATTAGTTTTCGGAGTCACCTAGTGCAG”, for which the binding signal was 5660 fluorescence intensity (a.u.).

“AAATGATTATTCCCGTTTTGGCTATATTTATCCCATTAATCGGAGTCACCTAGTGCAG”: the binding signal was 18000 fluorescence intensity (a.u.).

For the sequence “TCTTATGATCCAACACTGATTATCTAGCACTTCAAGGCCTCGGAGTCACCTAGTGCAG”, the binding signal is 5610 fluorescence intensity (a.u.).

As to “CACCTTAACTGTTACCGTGTGGTGTTGGAATCTCTCTCTTCGGAGTCACCTAGTGCAG”, the binding signal is 3880 fluorescence intensity (a.u.).

With “GGAGATTGGATATGGGCTGGGCTTATGGGTTCATGGCCCACGGAGTCACCTAGTGCAG”, the binding signal is 18500 fluorescence intensity (a.u.).

In the case of “TCCTTAACGCTATATTCAATCTCATTCTGTCCACTCAGGTCGGAGTCACCTAGTGCAG”, the binding signal is 3620 fluorescence intensity (a.u.).

On to “TCCAGTGAGATTGGTTCTGTTGCGGAATCGCCGATCTGCGCGGAGTCACCTAGTGCAG”, for which the binding signal was 5920 fluorescence intensity (a.u.).

In the case of “GCTGTTAATTGTATACCCCACTTGGCCGCTATCTTTGACACGGAGTCACCTAGTGCAG”, the binding signal is 24200 fluorescence intensity (a.u.).

For the sequence “TATTAATAGACGATTGCAGTGCACCGAAAGAAAGCGACCACGGAGTCACCTAGTGCAG”, the binding signal is 11600 fluorescence intensity (a.u.).

In the case of “TCGGCATAATTTGTATGACGTGTCCTATCACAACAAACTCCGGAGTCACCTAGTGCAG”, the binding signal is 6220 fluorescence intensity (a.u.).

Regarding “ATACTTAATTAATCATGCGCTAATGGCTCACCTCGTTTTGCGGAGTCACCTAGTGCAG”, the binding signal is 29600 fluorescence intensity (a.u.).

For “GACAAATTTGTACCGTGTATCGATGGCACTTCTTATCTATCGGAGTCACCTAGTGCAG”, the binding signal was 8130 fluorescence intensity (a.u.).

With “AAGATATGTGGGATAATTGACTGTTTATGCCTAAATATATCGGAGTCACCTAGTGCAG”, the binding signal is 22400 fluorescence intensity (a.u.).

In the case of “GATAGATTGATCAGACATCATGGCCGAGTATGGATTGGAGCGGAGTCACCTAGTGCAG”, the binding signal is 36200 fluorescence intensity (a.u.).

In the case of “ACTTAACTGGGATTTCCCGGTATAAACGATTTCACTGGTACGGAGTCACCTAGTGCAG”, the binding signal was 20000 fluorescence intensity (a.u.).

As for “TTCGTAATCATTTGACCAACAAGTGGGGAGGTACTACACGCGGAGTCACCTAGTGCAG”, the binding signal was 4030 fluorescence intensity (a.u.).

Turning to “CATGACAAACTGCAATTGCTATTAATTCTCTGCAGAAATGCGGAGTCACCTAGTGCAG”, the binding signal is 8330 fluorescence intensity (a.u.).

As to “TAGATTGATAAGTACAATTGTATCTATAGAAACATAAGATCGGAGTCACCTAGTGCAG”, the binding signal is 30600 fluorescence intensity (a.u.).

As for “TAATAATGTCCAATCCTGCAATGAAGATAGAGAAACCCAACGGAGTCACCTAGTGCAG”, the binding signal was 3470 fluorescence intensity (a.u.).

Take “GGAAGATTTATTTGATATTTTAAAGTAACTTTCATTTAGACGGAGTCACCTAGTGCAG”: the binding signal is 10800 fluorescence intensity (a.u.).

For the sequence “CCTCAATTATTTGCAAGATGGGGTCATCACTATTGTAGTACGGAGTCACCTAGTGCAG”, the binding signal is 24800 fluorescence intensity (a.u.).

On to “GAAGTGATTGATATTTGAGCAATTAGTCCGTTGTCAGGGTCGGAGTCACCTAGTGCAG”, for which the binding signal was 62400 fluorescence intensity (a.u.).

Take “AGTAATCAATTGTTTTGGTAACTTGGTAGGAGTAGGATCTCGGAGTCACCTAGTGCAG”: the binding signal was 3160 fluorescence intensity (a.u.).

Regarding “ATGGAAAATGATTGTAATTAGCGGATAGAATAAAGTATTTCGGAGTCACCTAGTGCAG”, the binding signal is 9100 fluorescence intensity (a.u.).

On to “CATATAATAAACATTCAATGATGATACAAACTGCAAAGACCGGAGTCACCTAGTGCAG”, for which the binding signal is 4020 fluorescence intensity (a.u.).

Turning to “GATTAGATTGATCACCTTCCCTAGCATTAAATAAACAGTACGGAGTCACCTAGTGCAG”, the binding signal was 33800 fluorescence intensity (a.u.).

On to “GTCAATTTCCAAATCAAATGTACTTAACGGGTGAACCCGTCGGAGTCACCTAGTGCAG”, for which the binding signal was 6220 fluorescence intensity (a.u.).

As to “AAGGCACGTTGATTGGACTAGTAGTACTACTACGTAGTAGCGGAGTCACCTAGTGCAG”, the binding signal was 18400 fluorescence intensity (a.u.).

In the case of “ATTGATTTACGGGATTGAAGTTAGTATAATTACATGTAAGCGGAGTCACCTAGTGCAG”, the binding signal was 53600 fluorescence intensity (a.u.).

As to “AAACTAATCATGCGCAATGATGCGTGCAGCTGCGCGGCCGCGGAGTCACCTAGTGCAG”, the binding signal was 8020 fluorescence intensity (a.u.).

For “AAGATTTGCAACCAATCAATACCACCAAATTTCCGGATTTCGGAGTCACCTAGTGCAG”, the binding signal is 28300 fluorescence intensity (a.u.).

“CCTTGCAAATCACTATCATCTACATACTCCAGTACAAATACGGAGTCACCTAGTGCAG”: the binding signal was 3650 fluorescence intensity (a.u.).

In the case of “TTCTGATGACTAGTATGAGACGTGAATGCCAACGCTCTCACGGAGTCACCTAGTGCAG”, the binding signal was 3900 fluorescence intensity (a.u.).

Take “TTTAATATGATTTTAGTGAGATTAAGATGTGTAGTTAGTTCGGAGTCACCTAGTGCAG”: the binding signal is 8040 fluorescence intensity (a.u.).

Turning to “GCCGATTTGACTGTTGATTAGGCATATCTTAGCACTAAACCGGAGTCACCTAGTGCAG”, the binding signal was 23800 fluorescence intensity (a.u.).

For “CAAATTTGTAAATTTCAGTCTCCACCTATGGTCTCTGGGCCGGAGTCACCTAGTGCAG”, the binding signal was 12000 fluorescence intensity (a.u.).

As for “CCAATCACAGCAATACCGGTTACAGTACCTATCAGCCAAACGGAGTCACCTAGTGCAG”, the binding signal is 3160 fluorescence intensity (a.u.).

For the sequence “CTATAATGATTAATCAAGTCAGAACAAAATAAATGATAATCGGAGTCACCTAGTGCAG”, the binding signal was 11000 fluorescence intensity (a.u.).

In the case of “TCAATAATTTACTATGGGTCCCGAGTATTAGCAACGAGACCGGAGTCACCTAGTGCAG”, the binding signal was 12000 fluorescence intensity (a.u.).
